This note sets out measurements from PubChem BioAssay AID1508623 (National Center for Advancing Translational Sciences (NCATS), 2021).

About 450 (0.94%) of roughly 48,000 compounds were called active. Not shown: some 19% with an inconclusive outcome. The call rests on the fitted dose curve; in most records, active means well fitted inhibition curve with a large enough effect; inconclusive means small, poorly fitted or top-dose-only effect; inactive means no such curve, though single readings can be large or run the other way. The list shows a part of the results.

A short description of this experiment: Primary qHTS for Identification of Small Molecule Inhibitors of Huntingtin Promoter Activity. Further: nearly all actives have a fitted effect of over 50% in size. Particulars: HEK293 HTT promoter firefly luciferase reporter (activity 0% = vehicle and -100% = no light), 24 h; series mostly up to 57.5 µM; activity change, negative = inhibition: at the top concentration. The method in brief:
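Firefly luciferase signal from promoter-reporter HEK293 cells was scaled between vehicle (0%) and zero RLU (-100%). Compounds were tested at final concentrations of up to 57.5 uM over 24 h at 37 degrees C. PTC124 at 50 uM final served as control inhibitor.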
For orientation: qHTS replaces the single test concentration by a dilution series.
On to `CC1CCN(S(=O)(=O)c2cc(C(=O)NCc3ccccc3)n(C)c2)CC1`, for which the “activity change, negative = inhibition” value was inactive: -14.3%.

In the case of `COc1cc2ncc3c(-c4ccccc4)nn(CC(=O)NC4CCCCC4)c3c2cc1OC`, the “activity change, negative = inhibition” value was inactive: -19%.

Regarding `COc1ccc(C2=C(C)C(N3CCN(c4ccc(OC)cc4)CC3)=NS2(=O)=O)cc1`, the “activity change, negative = inhibition” value was inactive: -15.3%.

For the molecule `COc1ccc(C(=O)NNc2ncnc3c2cnn3-c2ccc(C)cc2C)cc1`, the “activity change, negative = inhibition” value is inactive: -31%.

Consider `CN(C(=O)c1ccc2c(c1)N(Cc1ccc(F)cc1)C(=O)c1ccccc1S2(=O)=O)C1CCCCC1`, for which the “activity change, negative = inhibition” value is inactive: -29%.

Take `Cc1cc(N2CCC(C(=O)Nc3ccccc3Cl)CC2)n2nc(C)c(-c3ccc(Cl)cc3)c2n1`: the “activity change, negative = inhibition” value is inactive: -5.58%.

As to `Fc1cccc(-c2nnn3c2nc(NCc2ccc4c(c2)OCO4)c2ccccc23)c1`, the “activity change, negative = inhibition” value was inactive: -3.4%.

With `CCOC(=O)Cn1c(=O)oc2cc(S(=O)(=O)NC(C)c3ccccc3)ccc21` (configuration not stated), the “activity change, negative = inhibition” value was inactive: 2%.

In the case of `CCc1ccc(CN(C(=O)Nc2cccc(Cl)c2)c2ccccn2)cc1`, the “activity change, negative = inhibition” value is inactive: 13%.

`O=C(NCCS(=O)(=O)c1ccc(C(F)(F)F)cn1)c1ccc(Cl)cc1`: the “activity change, negative = inhibition” value is inactive: -0.396%.

Regarding `COc1ccccc1CNC(=O)c1ccc(-n2c(C)cc3c2CCCC3)cc1`, the “activity change, negative = inhibition” value was inactive: 10.1%.

Turning to `Cc1c(Cl)cccc1NS(=O)(=O)c1ccc(NS(=O)(=O)c2ccc3c(c2)OCCO3)cc1`, the “activity change, negative = inhibition” value is inactive: -27.8%.

Consider `COc1ccc(Cl)cc1NC(=O)c1cnc(N2CCCCC2)c2ccccc12`, for which the “activity change, negative = inhibition” value is inactive: -11.9%.

For the molecule `CCOc1ccc(NC(=O)C2CCN(S(=O)(=O)c3c(C)noc3/C=C/c3ccco3)CC2)cc1`, the “activity change, negative = inhibition” value was inactive: -23.4%.

For `CCOc1ccc(NC(=O)CCn2cccn2)cc1`, the “activity change, negative = inhibition” value was inactive: 30%.

Regarding `CCCCOC(=O)/C(C#N)=C\c1ccc(-c2ccc(Cl)cc2)o1`, the “activity change, negative = inhibition” value is inactive: 10.1%.

As to `Cc1ccc(-c2nc3ccccn3c2Nc2ccc3c(c2)OCCO3)o1`, the “activity change, negative = inhibition” value is inactive: -10.6%.

Turning to `O=C(Nc1ccc(Br)cc1)C1CCN(c2ncccn2)CC1`, the “activity change, negative = inhibition” value was inactive: -7.11%.

With `COc1cc(NC(=O)C(=O)Nc2ccc3nc4n(c(=O)c3c2)CCCCC4)cc(OC)c1OC`, the “activity change, negative = inhibition” value was inactive: -24.8%.

On to `CC(C)NC(=O)N1CCN(S(=O)(=O)c2ccc3c(ccn3C)c2)CC1`, for which the “activity change, negative = inhibition” value is inactive: -31.7%.

As to `Cc1ccc(C)c(NC(=O)CN(C)S(=O)(=O)c2ccc3c(c2)CCC(=O)N3)c1`, the “activity change, negative = inhibition” value is inactive: -15.6%.

For `CCOC(=O)c1cc(-c2ccc(OC)cc2)n(CCC(=O)NCc2ccc(OC)cc2)c1C`, the “activity change, negative = inhibition” value was inactive: -1.25%.

As to `OCc1ccccc1O[C@@H]1O[C@H](CO)[C@H](O)[C@H](O)[C@H]1O`, the “activity change, negative = inhibition” value was inactive: -9%.

Regarding `Cc1ccccc1C(=O)Nc1nnc2n1CCS2`, the “activity change, negative = inhibition” value was inactive: 45.5%.

Consider `CCOC(=O)c1c(C)[nH]c(C)c1S(=O)(=O)N1CCCC(C(=O)NCc2cccc(OC)c2)C1` (configuration not stated), for which the “activity change, negative = inhibition” value is inactive: -8.69%.

For the molecule `Cc1cc(C(=O)N2CCN(c3cccc(C)c3C)CC2)c2c(C)nn(-c3ccccc3)c2n1`, the “activity change, negative = inhibition” value was inactive: -12.7%.

As to `COc1cc(CNC(=O)CCCCC=CC(C)C)ccc1O`, the “activity change, negative = inhibition” value was inactive: 1.93%.

Turning to `COc1cccc(-c2ccc3c(N)c(C(=O)Nc4cc(C(F)(F)F)ccc4OC)sc3n2)c1`, the “activity change, negative = inhibition” value was inactive: 14.4%.

Consider `Cc1ccc(C(=O)c2cn(CC(=O)NCc3ccccc3Cl)c3nc(C)ccc3c2=O)cc1`, for which the “activity change, negative = inhibition” value is inactive: -5.09%.

As for `CCCC(=O)NC(C)c1nc2ccccc2n1Cc1ccccc1` (configuration not stated), the “activity change, negative = inhibition” value is inactive: 2.28%.

Regarding `COc1ccc(S(=O)(=O)N2CCCN(CC(=O)Nc3ccc(OC)cc3OC)CC2)cc1`, the activity change, negative = inhibition is inactive: 22.8% [at 11.5 µM].

Consider `COc1ccccc1CNC(=O)CCC1N=C2c3ccccc3N=C(SCC(=O)Nc3ccc(N(C)C)cc3)N2C1=O` (configuration not stated), for which the “activity change, negative = inhibition” value is inactive: -8.14%.

For `Cc1c(C(=O)N(C)C)sc2c1c(=O)n(-c1ccc(Cl)cc1)c(=O)n2Cc1ccccc1F`, the “activity change, negative = inhibition” value is inactive: -4.39%.

Take `Cc1cccc(OCC(=O)Nc2cc(-c3ccccc3F)nn2-c2ccccc2)c1`: the “activity change, negative = inhibition” value was inactive: -5.46%.

As to `CC(C)c1ccc(Nc2ncnc3onc(-c4ccc(F)cc4)c23)cc1`, the “activity change, negative = inhibition” value was inactive: -18.4%.

For the molecule `Cc1cc(Cl)ccc1NC(=O)Cn1nnc2sc(-c3ccccc3)cc2c1=O`, the “activity change, negative = inhibition” value is inactive: 6.68%.

`COc1ccc(OC)c2sc(N3CCN(C(=O)CCS(=O)(=O)c4ccc(F)cc4)CC3)nc12`: the “activity change, negative = inhibition” value was inactive: -14.8%.

For the molecule `COCCNc1nc2c(c(=O)n(Cc3cccc(Br)c3)c(=O)n2C)n1C`, the “activity change, negative = inhibition” value was inactive: -15.7%.

Take `COc1cccc(N2CCN(C(=O)c3cc4c(=O)oc5ccc(C)cc5c4s3)CC2)c1`: the “activity change, negative = inhibition” value is inactive: -8.69%.

Regarding `CCCCn1nc(NC(=O)c2cccc(Cl)c2)c2cc3cccc(C)c3nc21`, the “activity change, negative = inhibition” value is inactive: 1.29%.

As to `CCCn1c2ccccc2c2cnn(CC(=O)N3CCCC(C)C3)c(=O)c21` (configuration not stated), the “activity change, negative = inhibition” value is inactive: -18.3%.

For the molecule `CCc1ccccc1-n1c(C)nc2cc(C(=O)NCCc3ccc(Cl)cc3)ccc21`, the “activity change, negative = inhibition” value is inactive: -24.2%.

Take `Cc1ccc(CNC(=O)C2CCN(S(=O)(=O)c3cn(C)cn3)CC2)cc1`: the “activity change, negative = inhibition” value is inactive: -19.9%.

On to `O=C(NCCCc1nc2ccccc2n1Cc1ccc(Cl)cc1)C1CCCCC1`, for which the “activity change, negative = inhibition” value was inactive: -27.9%.

As to `Cc1ccc(-n2ncc(C(=O)NCCN3CCCC3)c2C2CCN(C(=O)OC(C)(C)C)CC2)cc1C`, the “activity change, negative = inhibition” value is inactive: -9.43%.

As to `COCCCNC(=O)CCc1c(C)nc2nc(-c3cc(OC)cc(OC)c3)nn2c1C`, the “activity change, negative = inhibition” value is inactive: -4.86%.

In the case of `CC(C)N(Cc1ccccc1)S(=O)(=O)c1ccc(-c2cc(C(F)(F)F)on2)s1`, the “activity change, negative = inhibition” value is inactive: -18.5%.
